Data: the supplement of paper PMC4967469
A lower IC50 marks a more sensitive line; fits outside the tested doses are given as limits. AUC sums up the same curve from the lowest dose to the 256-fold higher top dose; it is 1 without any effect and falls as sensitivity rises. For some of these results: Any top dose called inferred is not printed in the source and was worked back from the curve model.

Tests used:
Experiment in all cases: Viability of human cancer cell lines after 72 h of drug (GDSC screen)
[1] = compound: O=C(CCCCCCC(=O)Nc1ccccc1)NO [Vorinostat]; settings: top dose 10 µM
Description: (§1)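 Human cancer cell lines in 384-well plates, medium with 10% serum, drug for 72 h over a 256-fold dose range (nine 2-fold or five 4-fold steps up to the top dose). Adherent lines were fixed and stained with the nucleic acid dye Syto60, suspension lines read with resazurin; signal relative to control wells, capped at 0 and 100%. One two-parameter sigmoid per drug and line, fitted in a mixed model over all curves with the slope shared within a line.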

[2] = compound: CC(C)(C)c1nc(-c2cccc(NS(=O)(=O)c3c(F)cccc3F)c2F)c(-c2ccnc(N)n2)s1 [Dabrafenib]; settings: top dose 10 µM
Description: as §1

[3] = compound: CN(Cc1cnc2nc(N)nc(N)c2n1)c1ccc(C(=O)N[C@@H](CCC(=O)O)C(=O)O)cc1 [Methotrexate]; settings: top dose 0.2 µM
Description: as §1

[4] = compound: CCc1c2c(nc3ccc(O)cc13)-c1cc3c(c(=O)n1C2)COC(=O)[C@]3(O)CC [SN-38]; settings: top dose 0.05 µM; top dose inferred
Description: as §1

[5] = compound: CNC(=O)c1ccccc1Sc1ccc2c(/C=C/c3ccccn3)n[nH]c2c1 [Axitinib]; settings: top dose 2 µM
Description: as §1

Q: What does the source list for HT-3 (cervix, adherent)?
A: AUC [1]: 0.73; IC50 [1]: 2.85 µM; AUC [2]: 0.984; IC50 [2]: > 10 µM; AUC [3]: 0.773; IC50 [3]: 79.2 nM; AUC [4]: 0.468; IC50 [4]: 2.56 nM; AUC [5]: 0.981; IC50 [5]: > 2000 nM

Q: For “P31-FUJ (acute myeloid leukaemia, suspension)”, which AUC [1] is on record?
A: 0.639

Q: And the IC50 [1]?
A: 1.37 µM

Q: What about the AUC [2] of the same cell line?
A: 0.976

Q: And the IC50 [2]?
A: > 10 µM

Q: And the AUC [3]?
A: 0.935

Q: What about the IC50 [3] of the same cell line?
A: > 200 nM

Q: What about the AUC [4] of the same cell line?
A: 0.681

Q: What about the IC50 [4] of the same cell line?
A: 8.7 nM

Q: And the AUC [5]?
A: 0.956

Q: What about the IC50 [5] of the same cell line?
A: > 2000 nM

Q: HCC-78 (lung adenocarcinoma, adherent) was tested. Which AUC [1] did it give?
A: 0.669

Q: What about the IC50 [1] of the same cell line?
A: 2.01 µM

Q: What about the AUC [2] of the same cell line?
A: 0.981

Q: And the IC50 [2]?
A: > 10 µM

Q: And the AUC [3]?
A: 0.886

Q: And the IC50 [3]?
A: > 200 nM

Q: What about the AUC [4] of the same cell line?
A: 0.468

Q: What about the IC50 [4] of the same cell line?
A: 2.52 nM

Q: What about the AUC [5] of the same cell line?
A: 0.959

Q: What about the IC50 [5] of the same cell line?
A: > 2000 nM

Q: For OACM5-1 (oesophagus, semi-adherent), which AUC [1] is on record?
A: 0.886

Q: And the IC50 [1]?
A: > 10 µM

Q: What about the AUC [2] of the same cell line?
A: 0.985

Q: And the IC50 [2]?
A: > 10 µM

Q: What about the AUC [3] of the same cell line?
A: 0.971

Q: And the IC50 [3]?
A: > 200 nM

Q: And the AUC [4]?
A: 0.961

Q: What about the IC50 [4] of the same cell line?
A: > 50 nM

Q: What about the AUC [5] of the same cell line?
A: 0.984

Q: And the IC50 [5]?
A: > 2000 nM

Q: For “EPLC-272H (lung squamous cell carcinoma, adherent)”, which AUC [1] is on record?
A: 0.787

Q: What about the IC50 [1] of the same cell line?
A: 4.99 µM

Q: And the AUC [2]?
A: 0.919

Q: What about the IC50 [2] of the same cell line?
A: > 10 µM

Q: What about the AUC [3] of the same cell line?
A: 0.969

Q: And the IC50 [3]?
A: > 200 nM

Q: And the AUC [4]?
A: 0.745

Q: What about the IC50 [4] of the same cell line?
A: 17.6 nM

Q: What about the AUC [5] of the same cell line?
A: 0.941

Q: And the IC50 [5]?
A: > 2000 nM

Q: Which results are given for “CESS (acute myeloid leukaemia, suspension)”?
A: AUC [1]: 0.794; IC50 [1]: 3.88 µM; AUC [2]: 0.951; IC50 [2]: > 10 µM; AUC [3]: 0.912; IC50 [3]: > 200 nM; AUC [4]: 0.496; IC50 [4]: 3.06 nM; AUC [5]: 0.977; IC50 [5]: > 2000 nM

Q: How did the AUC [1] turn out when WSU-NHL (lymphoid neoplasm, suspension) was run?
A: 0.558

Q: What about the IC50 [1] of the same cell line?
A: 0.882 µM

Q: And the AUC [2]?
A: 0.845

Q: What about the IC50 [2] of the same cell line?
A: 5.95 µM

Q: What about the AUC [3] of the same cell line?
A: 0.5

Q: And the IC50 [3]?
A: 12.5 nM

Q: What about the AUC [4] of the same cell line?
A: 0.461

Q: And the IC50 [4]?
A: 2.48 nM

Q: What about the AUC [5] of the same cell line?
A: 0.94

Q: What about the IC50 [5] of the same cell line?
A: > 2000 nM

Q: Which AUC [1] does the source give for RPMI-2650 (head and neck, adherent) here?
A: 0.733

Q: What about the IC50 [1] of the same cell line?
A: 3.08 µM

Q: And the AUC [2]?
A: 0.94

Q: And the IC50 [2]?
A: > 10 µM

Q: What about the AUC [3] of the same cell line?
A: 0.969

Q: And the IC50 [3]?
A: > 200 nM

Q: What about the AUC [4] of the same cell line?
A: 0.503

Q: And the IC50 [4]?
A: 3.18 nM

Q: And the AUC [5]?
A: 0.95

Q: What about the IC50 [5] of the same cell line?
A: > 2000 nM

Q: WM35 (melanoma, adherent) was tested. Which AUC [1] did it give?
A: 0.744

Q: What about the IC50 [1] of the same cell line?
A: 3.14 µM

Q: And the AUC [2]?
A: 0.085

Q: And the IC50 [2]?
A: < 0.0391 µM

Q: And the AUC [3]?
A: 0.694

Q: And the IC50 [3]?
A: 43.9 nM

Q: What about the AUC [4] of the same cell line?
A: 0.781

Q: What about the IC50 [4] of the same cell line?
A: 20.9 nM

Q: What about the AUC [5] of the same cell line?
A: 0.936

Q: And the IC50 [5]?
A: > 2000 nM

Q: Which results are given for SNU-387 (liver, adherent)?
A: AUC [1]: 0.758; IC50 [1]: 3.91 µM; AUC [2]: 0.981; IC50 [2]: > 10 µM; AUC [3]: 0.984; IC50 [3]: > 200 nM; AUC [4]: 0.876; IC50 [4]: > 50 nM; AUC [5]: 0.953; IC50 [5]: > 2000 nM

Q: With “LOUCY (T-cell lymphoblastic leukaemia, suspension)” as the cell line, how does the AUC [1] read?
A: 0.462

Q: And the IC50 [1]?
A: 0.504 µM

Q: What about the AUC [2] of the same cell line?
A: 0.97

Q: And the IC50 [2]?
A: > 10 µM

Q: What about the AUC [3] of the same cell line?
A: 0.99

Q: What about the IC50 [3] of the same cell line?
A: > 200 nM

Q: What about the AUC [4] of the same cell line?
A: 0.879

Q: What about the IC50 [4] of the same cell line?
A: 35.4 nM

Q: And the AUC [5]?
A: 0.983

Q: What about the IC50 [5] of the same cell line?
A: > 2000 nM

Q: Which AUC [1] does the source give for MDA-MB-330 (breast, adherent) here?
A: 0.609

Q: And the IC50 [1]?
A: 1.3 µM

Q: And the AUC [2]?
A: 0.94

Q: What about the IC50 [2] of the same cell line?
A: > 10 µM

Q: And the AUC [3]?
A: 0.978

Q: What about the IC50 [3] of the same cell line?
A: > 200 nM

Q: What about the AUC [4] of the same cell line?
A: 0.949

Q: And the IC50 [4]?
A: > 50 nM

Q: What about the AUC [5] of the same cell line?
A: 0.963

Q: What about the IC50 [5] of the same cell line?
A: > 2000 nM

Q: What does the source list for SK-N-FI (neuroblastoma, adherent)?
A: AUC [1]: 0.787; IC50 [1]: 4.32 µM; AUC [2]: 0.939; IC50 [2]: > 10 µM; AUC [3]: 0.984; IC50 [3]: > 200 nM; AUC [4]: 0.868; IC50 [4]: 45.3 nM; AUC [5]: 0.904; IC50 [5]: > 2000 nM
